Reference: PubChem BioAssay AID1963576 (National Center for Advancing Translational Sciences (NCATS), 2024)
Screen size: about 46,000 compounds; about 60 (0.1%) were called active. Inconclusive results (about 3%) are left out. Calls follow the shape of the dose curve; as a rule, active = well fitted inhibition curve with a large enough effect; inconclusive = small, poorly fitted or top-dose-only effect; inactive = no such curve, though single readings can be large or run the other way. The list shows a part of the results.

Assay: Primary qHTS assay for Inhibitors of ovarian cancer metastasis using an organotypic tumor microenvironment (TME) model. Also: nearly all actives have a fitted effect of over 65% in size.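 As to activity change, negative = inhibition: plate controls were DMSO wells for no effect and tomatine positive control wells for full effect.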
Settings: SKOV3ip1-GFP adhesion/invasion on 3D omental model, fluorescence; series mostly up to 45.8 µM; activity change, negative = inhibition: at the top concentration
Summary of the method: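 qHTS, 4-pt dose (0.36-46 umol/L); SKOV3ip1-GFP, 1,200 cells/well, no FBS; primary omental fibroblast/mesothelial co-culture 48 h pre-grown; 2 h RT + 16 h 37 C; PBS wash, 4% PFA; GFP count 488/509 nm.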

Activity change, negative = inhibition, inactive:
O=C(Cn1cc(S(=O)(=O)N2CCCC2)c(S(=O)(=O)N2CCCC2)c1)Nc1ccccc1 4.33%
COc1cc(C2CC(=O)c3cnc(N4CCN(CCO)CC4)nc3C2)cc(OC)c1OC (stereo not given) -26.6%
Cn1c(=O)c(=O)n(C)c2cc(S(=O)(=O)N3CCN(c4ccc(F)cc4)CC3)ccc21 5.14%
Cc1ccc(S(=O)(=O)N2CCCc3cc(NS(=O)(=O)c4cc(F)ccc4F)ccc32)cc1 -7.9%
COC(=O)c1c(NC(=O)COc2ccc(OC)cc2)sc2c1CCC(C)C2 (stereo not given) -19.4%
COc1cc(NC(=O)CSc2ccc(-c3sc(-c4ccccc4)nc3C)nn2)cc(OC)c1 -0.167%
CCCc1cc(=O)[nH]c2nnc(SCCC(C)C)n12 -17.3%
CCC(=O)N1c2ccccc2CC1C(=O)NCCc1ccc(OC)cc1OC (stereo not given) 3.29%
COc1ccc(CN2CCN(S(=O)(=O)c3ccccc3)CC2)c(OC)c1 19.1%
Cc1ccc(CSc2nnc3[nH]c(=O)cc(C)n23)cc1 0.117%
CCn1cc(S(=O)(=O)c2ccc(C)cc2C)c(=O)c2cc(F)c(N3CCCC3)cc21 -0.825%
CCCn1cc(S(=O)(=O)c2ccc(OC)cc2)c(=O)c2cc(F)c(N3CCCCCC3)cc21 -3.7%
CC(=O)Nc1nonc1-c1nnc(SCc2ccc(C)cc2)n1C -11.7%
CCOC(=O)CNc1ncnc2c1nnn2C -10.3%
COc1cccc(CNC(=O)CCc2c(C)nn(-c3ccc(N4CCOCC4)nn3)c2C)c1 5.74%
CCNC(=O)c1ccc(-n2c(-c3ccccc3)cc3c2CCCCC3)cc1 -26.2%
O=C(CC1C(=O)N(c2ccccc2)C(=O)N1CCc1cccs1)Nc1ccc(Cl)cc1 (stereo not given) -2.82%
COc1ccc(OC)c(NC(=O)[C@H](Cc2ccccc2)N2Cc3ccccc3C2=O)c1 59.4%
COc1cccc(-c2cc(C(=O)Nc3ccc(F)cc3)[nH]n2)c1 -2.39%
CCCc1cc(=O)[nH]c2nnc(SCC(=O)Nc3cccc(C)c3)n12 1.12%
CC1C(=O)N2CCCc3cc(S(=O)(=O)Nc4ccc(Br)cc4F)cc1c32 (stereo not given) -0.736%
O=C(Cn1c(=O)oc2cc(S(=O)(=O)NCc3ccccc3)ccc21)N(CCO)Cc1ccccc1 -1.2%
COc1cccc(NC(=O)C2CCCN2S(=O)(=O)c2ccc3c(c2)n(C)c(=O)c(=O)n3C)c1 (stereo not given) -3.29%
COc1ccc(OC)c(NC(=O)c2nc(SCc3ccccc3F)ncc2Cl)c1 -2.25%
Cc1ccc2oc(C(=O)Nc3sc4c(c3C(=O)NCc3ccccc3)CCCC4)cc(=O)c2c1 1.04%
CCOc1ccc(NC(=O)c2ccc3nc(Cc4ccccc4)oc3c2)cc1 -18.1%
CCC1CN(C(=O)Nc2cc(OC)cc(OC)c2)c2ccccc2S1 (stereo not given) -4.04%
CCc1cccc(-n2c(=O)c3cccnc3n2CC(=O)Nc2ccccc2C(=O)OC)c1 -7.3%
CCC(=O)N1CCc2cc(S(=O)(=O)NC(Cc3ccccc3)C(=O)NCc3ccc(F)cc3)ccc21 (stereo not given) -0.447%
N#CC1=C2SCN(C3CCCCC3)CN2C(=O)CC1c1ccc(F)cc1 (stereo not given) -25.8%
Cc1ccc(OCC(=O)OCc2cc(=O)n3c(C)csc3n2)cc1 -0.337%
CCOc1ccc(NC(=O)C2CCCN(S(=O)(=O)c3ccc(Br)s3)C2)cc1 (stereo not given) -12.4%
COc1ccc(C(=O)Nc2cccc(-c3nc4cccnc4s3)c2C)c(OC)c1 -8.87%
O=C(CSc1nc2c([nH]c3ccccc32)c(=O)n1-c1ccccc1)Nc1ccccc1F 2.34%
O=C(CCn1cnnn1)Nc1ccccc1 1.8%
Cc1ccc(-c2c(C)n3c4c(=O)n(C)c(=O)n(C)c4nc3n2CCCO)cc1 9.75%
CC(=O)N1CCCc2cc(S(=O)(=O)N3CCC(N(C)C(C)C)CC3)ccc21 0.395%
COCCCNC(=O)C1CCN(c2ncnc3c2nc2n3CCCCC2)CC1 3.06%
O=C(Nc1cccc(C(F)(F)F)c1)c1ccc(F)c(S(=O)(=O)N2CCc3ccccc3C2)c1 1.38%
CCOc1cc(Br)c(C2C(C(=O)OC)=C(C)NC3=C2C(=O)c2ccccc23)cc1OCC (stereo not given) 5.87%
Cc1cccc(C(=O)NC(=O)Nc2ccc(-n3nc(C(F)(F)F)cc3C(F)(F)F)cc2)c1 2.85%
CCC(C)NC(=O)C1CCN(S(=O)(=O)c2ccc3c(ccn3CC)c2)CC1 (stereo not given) 3.55%
Cc1nc2c(C(=O)NCCC(C)C)cnn2c(C)c1Cc1c(F)cccc1Cl 3.01%
CC1CCCN(Cc2c(O)ccc3c(=O)c(-c4ccc(Cl)cc4)c(C(F)(F)F)oc23)C1 (stereo not given) 0.637%
CCOC(=O)C1CCCN(C(=O)C2CCN(S(=O)(=O)c3c(C)noc3/C=C/c3ccc(C)cc3)CC2)C1 (stereo not given) -13%
O=C(O)c1ccccc1NC(=O)N1c2ccccc2Sc2ccccc21 2.19%

outcome, inactive:
O=C(CCCn1c(=O)c2ccccc2n(Cc2cccc(Cl)c2)c1=O)NCCc1ccc(Cl)cc1
CCCN1C(=O)C2(c3ccccc31)c1c(oc3cc(C)c(C)cc3c1=O)C(=O)N2CCCOC (stereo not given)
CC(C)Oc1ccc(CNC(=O)C2CCCN(S(=O)(=O)c3ccc4c(ccn4C)c3)C2)cc1 (stereo not given)
Cc1c(C(=O)Nc2cccc(C(F)(F)F)c2)oc2ccc(S(=O)(=O)N(C)C3CCCCC3)cc12
Cc1cccn2c(=O)c(/C=C(\C#N)c3nc4ccccc4n3C)c(Oc3ccc(Cl)cc3)nc12
CCCNC(=O)c1c2c(nc3ccccc13)C(=O)N(C1CCCCC1)C2
CCOc1cc(-c2nnc(SCC(=O)NCc3ccc(C)cc3)nc2-c2ccc(OC)c(OCC)c2)ccc1OC
COc1ccc(-n2nc3cc(C)c(NC(=O)c4ccc(C)cc4C)cc3n2)cc1Cl
CCOC(=O)c1ccccc1NC(=O)Cn1c(=O)n(Cc2ccc(C(=O)NCc3ccc4c(c3)OCO4)cc2)c(=O)c2ccccc21
COc1ccc(-c2nc(C)c(CCNC(=O)c3ccccc3Br)s2)cc1OC
Cc1c2cnn(CC(=O)NCc3ccc(F)cc3)c(=O)c2c(C)n1Cc1ccccc1Cl
CC(=O)N1c2c(cc(Br)cc2S(=O)(=O)Nc2ccccc2C)CC1C (stereo not given)
COc1ccc2c(c1)c1c(c(=O)n(-c3ccc(C)cc3)c(=O)n1CC(=O)Nc1cc(C)ccc1C)n2C
COc1cc2c(cc1OC)C(c1cc(OC)c(O)c(OC)c1)CC(=O)N2 (stereo not given)
